{"source": "PubChem BioAssay AID588342", "about": "(National Center for Advancing Translational Sciences (NCATS), 2011)", "note": "The whole screen tested about 360,000 compounds, of which about 25,000 (6.9%) were called active. Inconclusive means that the source gave no clear call. Such entries were picked first, then a sample of the others. Calls come from the whole dose curve; as a rule, active = well fitted inhibition curve with a large enough effect; inconclusive = small, poorly fitted or top-dose-only effect; inactive = flat fitted curve, though single readings scatter. Potencies beside an inconclusive call are fits to weak or partial responses and may not hold up. Potency is the fitted concentration of half-maximal effect; tags give direction and shape of the fitted curve.", "data": [{"target": "Luciferin 4-monooxygenase (Photinus pyralis) (UniProt P08659)", "sequence (P08659 whole entry, looked up)": "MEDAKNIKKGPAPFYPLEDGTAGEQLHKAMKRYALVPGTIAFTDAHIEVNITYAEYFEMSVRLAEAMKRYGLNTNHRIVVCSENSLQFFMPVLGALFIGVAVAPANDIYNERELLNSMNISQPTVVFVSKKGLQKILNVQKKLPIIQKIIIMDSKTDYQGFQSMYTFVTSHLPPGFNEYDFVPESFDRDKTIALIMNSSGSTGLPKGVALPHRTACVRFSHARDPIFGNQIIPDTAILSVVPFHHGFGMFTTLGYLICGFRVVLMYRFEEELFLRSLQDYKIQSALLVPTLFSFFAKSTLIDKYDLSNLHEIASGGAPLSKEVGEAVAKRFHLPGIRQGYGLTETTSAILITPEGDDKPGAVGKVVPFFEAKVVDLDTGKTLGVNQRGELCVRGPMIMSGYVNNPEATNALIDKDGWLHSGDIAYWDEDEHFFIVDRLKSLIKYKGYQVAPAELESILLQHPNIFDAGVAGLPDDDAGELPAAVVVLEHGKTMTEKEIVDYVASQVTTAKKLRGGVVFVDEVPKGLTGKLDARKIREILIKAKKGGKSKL", "assay": "qHTS profiling assay for firefly luciferase inhibitor/activator using purifed enzyme and Km concentrations of substrates (counterscreen for miR-21 project); note: nearly all actives have a fitted effect of over 55% in size;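 for activity change, negative = inhibition: plate controls were vehicle for no effect and reference inhibitor for full effect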", "conditions": "purified FLuc, luminescence inhibition; activity change, negative = inhibition: at 57.5 µM (top of the series)", "summary_of_the_method": "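Biochemical qHTS of compounds, final roughly 60 µM downward over six points, against 10 nM purified firefly luciferase using Km concentrations of substrates (10 uM D-luciferin, 10 uM ATP) in Tris acetate pH 7.5 buffer; luminescence output.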", "values": [{"smiles": "COC(=O)c1cc(S(=O)(=O)NCCc2ccc(Cl)cc2)c[nH]1", "activity change, negative = inhibition": "inactive: 0.742%"}, {"smiles": "COc1cc(/C=C2\\C(=N)N3N=C(S(C)(=O)=O)SC3=NC2=O)ccc1OS(=O)(=O)c1ccc(C)cc1", "Potency": "inconclusive: 26.9 µM [inhibitor, partial curve, poor fit]"}, {"smiles": "O=C(COc1cccc2ccccc12)Nc1nc2ccccc2[nH]1", "Potency": "inconclusive: 23.9 µM [inhibitor, partial curve]"}, {"smiles": "COc1ccc(NS(=O)(=O)c2ccc3oc(SC)nc3c2)cc1", "activity change, negative = inhibition": "inactive: 0.3%"}, {"smiles": "CC(=O)c1cccc(NC(=S)NC(=O)c2cccc(C)c2)c1", "Potency": "active: 4.26 µM"}, {"smiles": "Cc1cc(S(=O)(=O)C(CNC(=O)COc2ccc(Cl)cc2)c2cccs2)ccc1F", "note": "(stereo not drawn)", "activity change, negative = inhibition": "inactive: -10.1%"}, {"smiles": "COC(=O)c1nc(-c2ccc(C)cc2)oc1N(C)C", "Potency": "active: 19 µM"}, {"smiles": "O=C(N/N=C1\\CCc2ccccc21)c1ccncc1", "Potency": "active: 21.3 µM"}, {"smiles": "CCCOC(=O)c1c(N)sc(C(=O)OCC)c1C", "Potency": "inconclusive: 26.9 µM [inhibitor, single point]"}, {"smiles": "COc1ccc(CNC(=O)COC(=O)c2[nH]c(C)c(C(C)=O)c2C)cc1OC", "activity change, negative = inhibition": "inactive: 10.3%"}, {"smiles": "CCc1c(C)nc2cc(-c3ccc(OC)c(OC)c3)nn2c1NCC1CC1", "Potency": "inconclusive: 37.9 µM [inhibitor, single point]"}, {"smiles": "CCCCNC(=O)C1=C(N)C(C(=O)Nc2ccc(C)c(S(=O)(=O)N3CCCCC3)c2)SC1=Nc1ccc(C)cc1C", "note": "(stereo not drawn)", "activity change, negative = inhibition": "inactive: 1.94%"}, {"smiles": "O=C(O)c1ccccc1C(=O)c1ccc(-c2ccccc2)cc1", "Potency": "active: 21.3 µM"}, {"smiles": "CN1CCN(CC(=O)Nc2ccc(OCc3ccccc3)cc2)CC1", "Potency": "inconclusive: 26.9 µM [inhibitor, single point]"}, {"smiles": "Cc1ccccc1OCc1nnc(SCC(=O)Nc2ccc3c(c2)OCO3)n1C", "activity change, negative = inhibition": "inactive: 1.1%"}, {"smiles": "COc1cc(/C=C(\\C#N)c2nc3ccccc3o2)ccc1O", "Potency": "active: 7.57 µM"}, {"smiles": "CCc1ccccc1NC(=O)CSc1nnc2ccc3ccccc3n12", "Potency": "inconclusive: 23.9 µM [inhibitor, single point]"}, {"smiles": "CCn1ncc(Cl)c1C(=O)Nc1ccc2c(c1)CCC2", "Potency": "inconclusive: 30.1 µM [inhibitor, single point]"}, {"smiles": "Cc1cc(C(=O)O)cc(S(=O)(=O)Nc2ccccc2C(=O)NC2CC2)c1C", "activity change, negative = inhibition": "inactive: 6.73%"}, {"smiles": "O=C(Nc1cc2ccccc2oc1=O)c1ccccc1", "Potency": "active: 0.426 µM"}, {"smiles": "COc1ccc(/C=C/C(=O)NC(=S)N2CCN(c3ccccn3)CC2)cc1OC", "Potency": "active: 23.9 µM"}, {"smiles": "COc1ccccc1CNC(=O)C1CCC(CNS(=O)(=O)c2ccc3c(c2)CCCC(=O)N3)CC1", "note": "(stereo not drawn)", "activity change, negative = inhibition": "inactive: 5.55%"}, {"smiles": "COCCCNC(=O)c1ccc(NC(=O)c2nsc3ccccc23)cc1", "Potency": "active: 16.9 µM"}, {"smiles": "Cc1ccc2cc(CCNC(=O)C(C)C)c(=O)[nH]c2c1C", "Potency": "inconclusive: 33.8 µM [inhibitor, partial curve, poor fit]"}, {"smiles": "CCN(CCn1cccn1)C(=O)c1cc(COc2ccc(F)c(F)c2)on1", "Potency": "inconclusive: 26.9 µM [inhibitor, single point]"}, {"smiles": "COc1ccc(CNC(=O)c2ccc(N3CCCC3)c(NC(=O)NCc3ccc(F)cc3)c2)cc1", "activity change, negative = inhibition": "inactive: -15%"}, {"smiles": "CSc1ccc(S(=O)(=O)N2CCC(C(=O)NCC3CCCO3)CC2)cc1", "note": "(stereo not drawn)", "activity change, negative = inhibition": "inactive: -0.747%"}, {"smiles": "O=c1[nH]ncc(N/N=C\\c2ccc(O)cc2O)c1Cl", "Potency": "inconclusive: 26.9 µM [inhibitor, single point]"}, {"smiles": "COc1ccc(-c2ccc(=O)n(CC(=O)Nc3ccc(C(=O)NC4CC4)cc3)n2)cc1OC", "Potency": "inconclusive: 33.8 µM [inhibitor, single point]"}, {"smiles": "COc1ccc2c(c1)Cc1sc(NC(=O)c3cccs3)nc1-2", "Potency": "inconclusive: 2.39 µM [inhibitor, full curve]"}, {"smiles": "COc1cc(Cl)c(NC(=O)CCS(=O)(=O)c2cc3c(cc2Cl)NC(=O)CO3)c(OC)c1", "activity change, negative = inhibition": "inactive: -2.39%"}, {"smiles": "COc1ccc(OC)c2sc(N3CCN(C(=O)C(C)(C)C)CC3)nc12", "Potency": "active: 13.5 µM"}, {"smiles": "Cc1[nH]c2ccccc2c1CCNC(=O)c1ccc2nccnc2c1", "Potency": "inconclusive: 26.9 µM [inhibitor, single point]"}, {"smiles": "COc1ccccc1OCCSc1nc(N)cc(N)n1", "Potency": "inconclusive: 30.1 µM [inhibitor, single point]"}, {"smiles": "Cc1ccc(-c2cc3ncc4c(n3n2)-c2cc(C)ccc2OC4)cc1", "Potency": "inconclusive: 10.7 µM [inhibitor, partial curve, poor fit]"}, {"smiles": "Cc1ccc(NC(=O)OCCNC(=O)c2ccncc2)cc1", "Potency": "inconclusive: 19 µM [inhibitor, partial curve, poor fit]"}, {"smiles": "N#Cc1ccc(-c2c(-c3ccccc3)ncc3cc(F)ccc23)cc1", "Potency": "inconclusive: 12 µM [inhibitor, single point]"}, {"smiles": "O=C(CSc1ccc(-c2ccccc2)nn1)c1cccs1", "Potency": "inconclusive: 23.9 µM [inhibitor, single point]"}, {"smiles": "COc1ccc(Nc2nc(N)nc(CSc3nncn3C)n2)cc1", "Potency": "active: 15.1 µM"}, {"smiles": "COc1ccc2cc(C(=O)NCC3CCCO3)[nH]c2c1", "note": "(stereo not drawn)", "Potency": "inconclusive: 23.9 µM [inhibitor, single point]"}, {"smiles": "CN(C)/C=C/C(=O)c1ccc(OCCN(C)c2ccccn2)cc1", "Potency": "inconclusive: 37.9 µM [inhibitor, partial curve, poor fit]"}, {"smiles": "Cc1ccc(C)c(N2CCN(C(=O)C3CCCN(S(=O)(=O)c4ccc5c(c4)oc(=O)n5C)C3)CC2)c1", "note": "(stereo not drawn)", "activity change, negative = inhibition": "inactive: -1.3%"}, {"smiles": "COc1ccc2[nH]c3c(c2c1)CCN1C(=O)N([C@@H](C)C(=O)NCc2ccc(C)cc2)C(=O)[C@]31C", "activity change, negative = inhibition": "inactive: 0.0815%"}, {"smiles": "COc1ccc(Nc2nc(-c3ccc(C)cc3)nc3ccccc23)c(OC)c1", "Potency": "inconclusive: 23.9 µM [inhibitor, single point]"}, {"smiles": "CCCCCn1c(C(C)NC(=O)c2ccccc2)nc2ccccc21", "note": "(stereo not drawn)", "activity change, negative = inhibition": "inactive: -3.23%"}, {"smiles": "O=C(c1c(F)cccc1F)N1CCCC(c2nc(-c3cccs3)no2)C1", "note": "(stereo not drawn)", "Potency": "inconclusive: 26.9 µM [inhibitor, single point]"}, {"smiles": "COc1ccc(CN(C)Cc2nc(Cc3cccc(F)c3)no2)c2cccnc12", "activity change, negative = inhibition": "inactive: -0.482%"}, {"smiles": "COc1ccc(NC(=S)NC(=O)c2cc3ccccc3o2)c(OC)c1", "Potency": "inconclusive: 26.9 µM [inhibitor, single point]"}, {"smiles": "O=[N+]([O-])c1cccc(N/N=C/c2cc([N+](=O)[O-])ccc2O)c1", "Potency": "inconclusive: 8.49 µM [inhibitor, partial curve]"}, {"smiles": "CCOC(=O)Cn1c(=NC(=O)C(C)C)sc2c(C)cc(C)cc21", "Potency": "inconclusive: 26.9 µM [inhibitor, partial curve, poor fit]"}, {"smiles": "Cc1c(CCNC(=O)c2ccc(Br)o2)sc2nc(-c3ccc(F)cc3)nn12", "Potency": "inconclusive: 33.8 µM [inhibitor, single point]"}, {"smiles": "COCCNc1nnc(SCC(=O)Nc2cc(-c3ccccc3)nn2-c2ccccc2)s1", "Potency": "inconclusive: 33.8 µM [inhibitor, single point]"}, {"smiles": "COCCn1c(SCC(=O)c2ccc3c(c2)OCCO3)nnc1-c1ccoc1C", "Potency": "inconclusive: 30.1 µM [inhibitor, single point]"}, {"smiles": "CCOc1ccccc1NC(=O)Cn1cc(C(=O)c2cccc(OC)c2)c(=O)c2ccc(C)nc21", "activity change, negative = inhibition": "inactive: -4.96%"}, {"smiles": "CCc1ccc(NC(=O)CSc2nncn2-c2cccnc2)cc1", "Potency": "inconclusive: 26.9 µM [inhibitor, single point]"}, {"smiles": "CN(Cc1c(F)cccc1Cl)C(=O)CCc1c[nH]c2ccccc12", "activity change, negative = inhibition": "inactive: -11.6%"}, {"smiles": "Cc1cc(Nc2ccc3c(c2)OCCO3)c2cc(Cl)ccc2n1", "Potency": "inconclusive: 37.9 µM [inhibitor, partial curve, poor fit]"}, {"smiles": "COc1ccc(Nc2ncc(C(=O)O)c3ccccc23)cc1", "Potency": "inconclusive: 30.1 µM [inhibitor, single point]"}, {"smiles": "CCNC(=S)N/N=C/c1ccccc1[N+](=O)[O-]", "activity change, negative = inhibition": "inactive: 3.34%"}, {"smiles": "Cc1nn(C)c(Cl)c1/C=N/OC(=O)c1ccc(F)cc1", "Potency": "active: 16.9 µM"}, {"smiles": "CCc1ccc(-c2csc3[n+]2CCN3C(C)=O)cc1", "Potency": "inconclusive: 21.3 µM [inhibitor, partial curve, poor fit]"}, {"smiles": "O=C(CCS(=O)(=O)c1ccccc1)NCc1ccccc1", "Potency": "inconclusive: 19 µM [inhibitor, partial curve, poor fit]"}, {"smiles": "O=C1N=C(N2CCOCC2)CS1", "activity change, negative = inhibition": "inactive: -0.301%"}, {"smiles": "Cc1ccsc1CN(C(=O)COc1ccc(Br)cc1)C1CCS(=O)(=O)C1", "note": "(stereo not drawn)", "activity change, negative = inhibition": "inactive: 0.0405%"}, {"smiles": "CCOc1ccc(Sc2cc(C(=O)NC(C)c3ccccc3)c3ccccc3n2)cc1", "note": "(stereo not drawn)", "activity change, negative = inhibition": "inactive: 3.45%"}, {"smiles": "COc1ccc(NC(=O)c2sccc2C)c([N+](=O)[O-])c1", "Potency": "inconclusive: 19 µM [inhibitor, partial curve]"}, {"smiles": "CN(CC(=O)Nc1ccc(F)cc1)C(=O)c1cn(-c2ccccc2)nc1-c1cccs1", "Potency": "inconclusive: 26.9 µM [inhibitor, single point]"}, {"smiles": "CN(C)S(=O)(=O)c1ccc(C(=O)Nc2nnc(-c3ccc4c(c3)CCCC4)o2)cc1", "Potency": "inconclusive: 26.9 µM [inhibitor, partial curve, poor fit]"}, {"smiles": "Cc1ccc(C)c(N2CCN(C(c3ccccc3)c3nnc(-c4ccccc4F)o3)CC2)c1", "note": "(stereo not drawn)", "Potency": "inconclusive: 26.9 µM [inhibitor, partial curve, poor fit]"}, {"smiles": "O=C1/C(=C/c2ccco2)CCC1C1CCCC1", "note": "(stereo not drawn)", "Potency": "active: 8.49 µM"}, {"smiles": "CN(C)c1ccc(-c2nc3ccccc3c(=O)[nH]2)cc1", "Potency": "active: 0.601 µM"}, {"smiles": "CCCNC(=O)c1cc(Cl)c(NC(=O)C2=C(C)OCCS2)cc1OC", "Potency": "inconclusive: 21.3 µM [inhibitor, single point]"}, {"smiles": "Cc1ccc2oc(-c3ccc(NC(=O)c4ccc5c(c4)OCO5)cc3)nc2c1", "Potency": "inconclusive: 23.9 µM [inhibitor, partial curve, poor fit]"}]}]}
